# According to the antibiotic and cytotoxicity screens of Wong et al. (2023):
# Some of the results follow.
# Legend:
# HSkMC = human skeletal muscle cells; assay: cytotoxicity call (relative viability < 0.9); details: 10 µM
# HepG2 = assay: cytotoxicity call (relative viability < 0.9); details: 10 µM
# S. aureus RN4220 = assay: growth inhibition call (relative growth <= 0.2); details: 50 µM
SMILES,cytotoxicity call (HSkMC),cytotoxicity call (HepG2),growth inhibition call (S. aureus RN4220)
C[C@H](CO)N1C[C@H](C)[C@@H](CN(C)CC2CCCCC2)OCCCC[C@H](C)Oc2ccc(NS(=O)(=O)c3ccc(F)cc3)cc2C1=O,inactive,inactive,inactive
C[C@H]1CN([C@@H](C)CO)C(=O)c2cc(NS(=O)(=O)c3ccc(F)cc3)ccc2O[C@@H]1CN(C)Cc1ccncc1,inactive,inactive,inactive
C[C@@H]1CCCCO[C@H](CN(C)C(=O)Nc2ccc(F)cc2)[C@@H](C)CN([C@@H](C)CO)C(=O)c2cc(NC(=O)CCC(F)(F)F)ccc2O1,inactive,inactive,inactive
O=C(C[C@@H]1CC[C@H]2[C@@H](COC[C@H](O)CN2C(=O)Nc2cccc(F)c2)O1)NCc1ccccc1Cl,inactive,inactive,inactive
CNC[C@@H]1OCCCC[C@H](C)Oc2ccc(NC(=O)c3ccncc3)cc2C(=O)N([C@H](C)CO)C[C@H]1C,inactive,inactive,inactive
CCOC(=O)c1c(CN2CCN(c3ccccc3C)CC2)n(-c2ccccc2)c2cc(Br)c(O)cc12,active,inactive,inactive
O=C(Cc1cccs1)N1c2ccccc2Sc2ccccc21,inactive,active,inactive
C[C@@H]1CN([C@H](C)CO)C(=O)Cc2cc(NC(=O)C3CC3)ccc2O[C@H]1CN(C)S(=O)(=O)c1cn(C)cn1,inactive,inactive,inactive
CO[C@@H](CCO)[C@@H](O)c1ccc(O)c(F)c1,inactive,inactive,inactive
COc1cccc(C(=O)c2ccccc2)c1,inactive,inactive,inactive
O=c1[nH]cc(F)c(=O)[nH]1,inactive,active,inactive
C[C@@H]1CCCCO[C@H](CN(C)Cc2ccc3c(c2)OCO3)[C@H](C)CN([C@@H](C)CO)C(=O)c2cc(NC(=O)CCC(F)(F)F)ccc2O1,inactive,inactive,inactive
CC(C)C#Cc1ccc2c(c1)O[C@H](CN(C)C(=O)c1cccc(F)c1)[C@H](C)CN([C@H](C)CO)S2(=O)=O,inactive,inactive,inactive
COc1ccc(CN(C)C[C@@H]2OCCCC[C@@H](C)Oc3ccc(NC(=O)c4ccccc4)cc3C(=O)N([C@@H](C)CO)C[C@H]2C)cc1,inactive,inactive,inactive
COCC(=O)N(C)C[C@@H]1Oc2cc(-c3ccc(C#N)cc3)ccc2S(=O)(=O)N([C@H](C)CO)C[C@@H]1C,inactive,inactive,inactive
O=C(CO)C(O)C(O)C(O)CO (stereo not drawn),inactive,inactive,inactive
COc1ccc(S(=O)(=O)Nc2ccc3c(c2)C(=O)N([C@@H](C)CO)C[C@@H](C)[C@H](CN(C)Cc2ccc(C(=O)Nc4ccccc4N)cc2)OCCCC[C@@H](C)O3)cc1,inactive,inactive,inactive
C[C@H]1CN([C@@H](C)CO)C(=O)c2cc(C#CC3(O)CCCC3)cnc2O[C@H]1CN(C)C(=O)C1CCCCC1,inactive,inactive,inactive
COc1ccc(S(=O)(=O)N(C)C[C@@H]2Oc3ccc(NS(=O)(=O)c4ccc(C)cc4)cc3CC(=O)N([C@@H](C)CO)C[C@H]2C)cc1,inactive,inactive,inactive
C[C@H]1CCCCO[C@H](CN(C)S(=O)(=O)c2ccccc2)[C@@H](C)CN([C@@H](C)CO)C(=O)c2cc(NS(=O)(=O)c3cn(C)cn3)ccc2O1,inactive,inactive,inactive
C[C@@H]1CN([C@H](C)CO)C(=O)c2cc(NC(=O)Cn3cnnn3)ccc2O[C@@H]1CN(C)Cc1ccc(-c2ccccc2)cc1,inactive,inactive,inactive
C[C@H]1CN([C@@H](C)CO)C(=O)c2cc(C#Cc3ccccc3F)cnc2O[C@H]1CN(C)S(=O)(=O)c1ccccc1,inactive,inactive,inactive
C[C@H]1CCCCO[C@@H](CN(C)C(=O)C2CCCCC2)[C@@H](C)CN([C@@H](C)CO)C(=O)c2cc(NC(=O)NC3CCCCC3)ccc2O1,inactive,inactive,inactive
COc1ccc(CCNC(=O)c2cc3c(=O)n4cccc(C)c4nc3n(CCCN3CCOCC3)c2=N)cc1,inactive,active,inactive
C[C@H](CO)N1C[C@H](C)[C@H](CN(C)Cc2ccc(C(F)(F)F)cc2)Oc2ccc(NS(C)(=O)=O)cc2C1=O,inactive,inactive,inactive
C[C@H](CO)N1C[C@H](C)[C@H](CN(C)CC2CC2)OCCCC[C@H](C)Oc2ccc(NC(=O)Cc3ccccc3)cc2C1=O,inactive,inactive,inactive
